Data as given in PubChem BioAssay AID686978 (National Center for Advancing Translational Sciences (NCATS), 2013).
Several values for one entry are separate records, joined by “and”; a condition that tells them apart may be missing. Equal entries are not always repeated. The whole screen tested about 420,000 compounds, of which about 64,000 (15%) were called active. The inconclusive results got no clear call from the source; some entries with a clear call stand among them for comparison. Calls follow the shape of the dose curve; as a rule, active = well fitted inhibition curve with a large enough effect; inconclusive = small, poorly fitted or top-dose-only effect; inactive = flat fitted curve, though single readings scatter. A potency beside an inconclusive call is a rough fit, not a confirmed value.

Experiment: qHTS for Inhibitors of human tyrosyl-DNA phosphodiesterase 1 (TDP1): qHTS in cells in absence of CPT; also: nearly all actives have a fitted effect of over 55% in size
Settings: DT40 Tdp1-/- hTDP1 cells, no CPT, ATP luminescence, 48 h; activity change, negative = growth inhibition: at 46.2 µM (top of the series) unless noted
Summary of the method: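 Chicken DT40 Tdp1-/- cells stably complemented with human TDP1 were seeded at 400 cells/well with DMSO in place of 20 nM camptothecin. After compound pinning, cells grew at least 48 hr at 37 °C; viability read by CellTiter-Glo luminescence.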
% is scaled to controls: 0 for no effect and ±100 for the full control effect; potency is read from the fitted curve at half-maximal effect; tags tell the direction and shape of the fitted curve.

SMILES	Potency	activity change, negative = growth inhibition
CCCCN(CCCC)C(=O)C1CCN(S(=O)(=O)c2cccc3nsnc23)CC1	active: 25.9 µM	–
Cc1ccc(Cl)cc1-n1ncc2c(N3CCCCCC3)ncnc21	active: 8.2 µM	–
CCCc1c(C(=O)NNc2cccc(Cl)c2)cnn1-c1ccccc1	inconclusive: 25.9 µM [inhibitor, single point]	–
COc1ccc(NC(=O)C2Cc3c(-c4cccc(NC(C)=O)c4)ccnc3O2)cn1 (configuration not stated)	active: 1.84 µM	–
Cc1ccccc1CN1C(=O)c2ccccc2Sc2ccc(C(=O)NC3CCCC3)cc21	inconclusive: 29.1 µM [inhibitor, single point]	–
CCOCCCNS(=O)(=O)c1ccc(-n2cnnn2)c(OC)c1	inactive	–
COc1ccc(OC)c(/C=C/C(=O)Nc2ccc(C(=O)OCCC(C)C)cc2)c1	active: 18.4 µM	–
O=S(=O)(NCc1ccc(Cl)cc1)c1ccc(-c2cnc(C3CC3)o2)cc1	inconclusive: 29.1 µM [inhibitor, single point]	–
CCOC(=O)c1sc(NC(=O)CCN2C(=O)C3CCCCC3C2=O)cc1C (configuration not stated)	inactive	–
CCOC(=O)c1c(C)n(C)c2ccc(OC(C)=O)cc12	inactive	–
O=C(c1ccc([N+](=O)[O-])cc1)N1CCSC1c1ccccc1Cl (configuration not stated)	inconclusive: 18.4 µM [inhibitor, single point]	–
Cc1ccc(-c2nc(CS(=O)CC(=O)N3CCN(c4ncccn4)CC3)c(C)o2)cc1 (configuration not stated)	inconclusive: 29.1 µM [inhibitor, partial curve, poor fit]	–
COc1ccc(CCNC(=O)CNC(=O)c2nn(-c3ccc(OC)c(OC)c3)c(=O)c3ccccc23)cc1OC	active: 9.2 µM	–
COc1ccccc1CNC(=O)CC(c1ccc(OC)c(OC)c1)N1Cc2ccccc2C1=O (configuration not stated)	inconclusive: 13 µM [inhibitor, partial curve]	–
CC1CCN(c2nc(-c3ccco3)c3c(c2C#N)CC(C)(C)OC3)CC1	inconclusive: 18.4 µM [inhibitor, single point]	–
COc1ccc(C(=O)NC2CCN(Cc3c(F)cccc3Cl)CC2)cc1OC	inconclusive: 18.4 µM [inhibitor, single point]	–
O=C(c1ccc(Cl)c(S(=O)(=O)Nc2ccccc2C(=O)N2CCc3ccccc3C2)c1)N1CCc2ccccc2C1	inconclusive: 20.6 µM [inhibitor, single point]	–
O=C(Nc1cccnc1)c1cc(-c2cccc(Cl)c2)on1	inactive and inconclusive: 18.4 µM [inhibitor, single point]	–
O=C(NCc1ccc(F)cc1)c1cc(-c2ccc(Cl)cc2)n[nH]1	active: 8.2 µM	–
O=C(/C=C/c1ccco1)N/C(=C\c1ccccc1)C(=O)NCCc1nc2ccccc2[nH]1	inconclusive: 16.4 µM [inhibitor, single point]	–
Cc1ccc2nccc(/C=C/c3ccc(N(C)C)cc3)c2c1	active: 14.1 µM	–
C/[N+]([O-])=C/c1c(OCc2ccc(Cl)cc2Cl)ccc2ccccc12	inconclusive: 29.1 µM [inhibitor, single point]	–
C=CCC[C@@H](Cc1ccc(F)cc1)C(=O)O[C@H](CNC(=O)[C@@H](CC=C)CC(=O)N[C@H](CO)Cc1ccccc1)c1ccccc1	–	inconclusive: -30.4% [inhibitor]
COc1cccc(-c2ncc3ccccc3c2COC(=O)N2CCCCC2)c1	active: 16.4 µM	–

SMILES	Potency	activity change, negative = growth inhibition
COc1cccc(/C=N/NC(=O)c2cc3c(OC)cccc3[nH]2)c1OC	active: 7.31 µM	–
O=C(O)c1cccc(Nc2ncnc3scc(-c4ccccc4)c23)c1	–	inconclusive: -30.6% [inhibitor]
Cc1c(N2C(=O)CSC2c2ccc(F)cc2)c(=O)n(-c2ccccc2)n1C (configuration not stated)	inactive	–
CCOC(=O)[C@]12CCCC=C1N(Cc1ccc(Cl)cc1Cl)C(=O)[C@H](CC(=O)NCc1cccs1)C2	inconclusive: 29.1 µM [inhibitor, single point]	–
Cc1onc(-c2ccccc2Cl)c1C(=O)NCc1ccccc1F	inactive	–
Cc1ccc(C[n+]2ccccc2)cc1	active: 9.2 µM	–
Clc1ss/c(=N\c2ccccn2)c1Cl	inactive	–
Cc1ccc2cccc(OCCCOc3ccccc3CO)c2n1	active: 23.1 µM	–
COc1ccc(-n2nc([N+](=O)[O-])c(=NCCc3ccccc3)n2O)cc1	inconclusive: 29.1 µM [inhibitor, single point]	–
CC(C)(C)NC(=O)C(c1ccncc1)N(Cc1ccc(F)cc1)C(=O)c1ccc(-c2ccccc2)[nH]1 (configuration not stated)	inconclusive: 18.4 µM [inhibitor, single point]	–
Cc1ccc(NC(=S)NC(=O)c2ccc(F)cc2)cc1S(=O)(=O)Nc1ccccc1Cl	–	inconclusive: -31.1% [inhibitor]
O=C(CN1CCN(c2ccc(C(F)(F)F)cn2)CC1)Nc1ccc2c(c1)OCO2	inconclusive: 0.326 µM [inhibitor, full curve]	–
Cc1ccc(C)c(N2CCN(C(=O)CCCn3c(=O)c4cccn4c4cccnc43)CC2)c1	inconclusive: 29.1 µM [inhibitor, single point]	–
COc1ccc(CCN(C)C2CCCN(C(=O)CCC(F)(F)F)C2)cc1OC (configuration not stated)	inactive	–
NC(=O)c1cc([N+](=O)[O-])ccc1NCc1ccc(N)cc1	inconclusive: 25.9 µM [inhibitor, single point]	–
NC(CSC(c1ccccc1)(c1ccccc1)c1ccc(-c2ccccc2)cc1)C(=O)O (configuration not stated)	inconclusive: 29.1 µM [inhibitor, single point]	–
CN(C)Cc1nnnn1-c1cccc(-n2nnnc2CN(C)C)c1	inactive	–
O=C(Cc1ccc(OCc2ccccc2)cc1)NO	inconclusive: 25.1 µM [inhibitor, single point]	–
COc1ccc(-c2[nH]ncc2CN(C)C(C)c2cccs2)c(F)c1 (configuration not stated)	inconclusive: 25.9 µM [inhibitor, single point]	–
N#Cc1ccc(OCC(=O)NNC(=S)NC(=O)C2CC2)cc1	active: 20.6 µM	–
CCOC(=O)[C@]12CCC=C1N(CCC1=CCCCC1)C(=O)[C@H](CC(=O)NCc1ccccc1)C2	inconclusive: 29.1 µM [inhibitor, single point]	–
O=C1c2cccc3cccc(c23)C(=O)N1OS(=O)(=O)c1ccc(Cl)cc1	active: 18.4 µM	–
O=[N+]([O-])c1cccc(-c2ccc(SCc3cccnc3)nn2)c1	inconclusive: 18.4 µM [inhibitor, single point]	–
Cc1ccccc1C(=O)Oc1c(Sc2ccccc2)c(C)nn1C(C)(C)C	active: 14.6 µM	–

SMILES	Potency	activity change, negative = growth inhibition
CCOc1cc(NC(=S)NCC2CCCO2)c(OCC)cc1NC(=O)c1ccccc1C (configuration not stated)	inconclusive: 20.6 µM [inhibitor, single point]	–
C=CCOc1c(CNc2ccc3[nH]c(=O)[nH]c3c2)cccc1OC	inconclusive: 16.4 µM [inhibitor, partial curve, poor fit]	–
O=S1(=O)NC2c3ccccc3CC2O1 (configuration not stated)	inconclusive: 14.6 µM [inhibitor, partial curve]	–
Cc1ccc(C(=O)Nc2ccccc2C(=O)N2CCCCC2C)cc1 (configuration not stated)	inactive	–
O=C(NCCN1CCOCC1)c1cc(-c2ccc(F)cc2)nc2ccccc12	inconclusive: 16.4 µM [inhibitor, single point]	–
COc1ccc(C2N(C(=O)c3ccccc3)CCN2C(=O)c2ccc(C)cc2)cc1 (configuration not stated)	–	inconclusive: -30% [inhibitor]
CCCN1Cc2cccc(C(=O)NCc3ccccc3)c2C1=O	inactive	–
CCOc1ccc(NC(=O)c2oc3ccccc3c2NC(=O)c2cc(C)cc(C)c2)cc1	–	inconclusive: -33.3% [inhibitor]
COc1cccc(OCCCCN2CCCCC2)c1	inactive	–
CC(C)CCN1C(=O)c2ccc(C(=O)Nc3ccccn3)cc2C1=O	inactive	–
Cc1noc(C)c1-c1nccc(NCc2cccnc2)n1	inactive	–
CCOc1ccc(NC(=O)c2cnc(Nc3ccccc3OC)c3ccccc23)cc1	inconclusive: 25.9 µM [inhibitor, partial curve]	–
COc1ccccc1/C=C(/NC(=O)c1ccc(Cl)cc1Cl)C(=O)O	inactive	–
Cc1cccc(N2CCN(C(=O)CCn3c(=O)[nH]c4ccsc4c3=O)CC2C)c1 (configuration not stated)	active: 10.3 µM	–
Cc1cccc(Cc2c(C)nc3nc(SCC(=O)NCc4ccccc4)nn3c2C)c1	inconclusive: 18.4 µM [inhibitor, single point]	–
CC(C)Oc1ccc(CNC(=O)c2cccc(NC(=O)N3CCSc4ncccc43)c2)cc1	active: 20.6 µM	–
O=C1C(=O)N(c2ccccn2)C(c2ccc(Br)cc2)/C1=C(/O)c1ccc(Br)cc1 (configuration not stated)	inconclusive: 29.1 µM [inhibitor, single point]	–
OCC1(CO)COC(CCc2ccccc2)=N1	inactive	–
Clc1ccc(CSc2cnnc3ccccc23)cc1Cl	inconclusive: 9.2 µM [inhibitor, partial curve]	–
CCC(=O)N1CCc2cc(Br)cc(S(=O)(=O)N3CCCC(C(=O)Nc4cccc(F)c4)C3)c21 (configuration not stated)	active: 18.4 µM	–
CCOC(=O)CSc1nc2sc3c(c2c(=O)n1-c1ccccc1)CCC(C(C)(C)C)C3 (configuration not stated)	inconclusive: 10.3 µM [inhibitor, partial curve]	–
CCOC(=O)/C=C/c1ccc2c(c1)S(=O)(=O)N(C1CCCC1)[C@H]2CC(=O)OCC	inconclusive: 31.6 µM [inhibitor, partial curve, poor fit]	–
Cc1ccc(NC(=O)Cn2cccc2C2=NC(c3ccccc3)CO2)c(C)c1 (configuration not stated)	inconclusive: 20.6 µM [inhibitor, single point]	–
O=C(NCCC1=CCCCC1)C1COc2ccccc2O1 (configuration not stated)	inconclusive: 13 µM [inhibitor, single point]	–
